SMILES strings stand for the structures. Out of some 310,000 compounds screened, about 2,200 (0.71%) showed an effect of 50% or more. The effect is printed as a negative number. This is one part of the list.

The target in this assay is human ether-à-go-go-related gene (hERG) potassium channel (human, UniProt Q12809). In words: primary screen, population patch clamp on CHO cells stably expressing hERG.
Sequence of human ether-à-go-go-related gene (hERG) potassium channel (Q12809 whole entry, looked up): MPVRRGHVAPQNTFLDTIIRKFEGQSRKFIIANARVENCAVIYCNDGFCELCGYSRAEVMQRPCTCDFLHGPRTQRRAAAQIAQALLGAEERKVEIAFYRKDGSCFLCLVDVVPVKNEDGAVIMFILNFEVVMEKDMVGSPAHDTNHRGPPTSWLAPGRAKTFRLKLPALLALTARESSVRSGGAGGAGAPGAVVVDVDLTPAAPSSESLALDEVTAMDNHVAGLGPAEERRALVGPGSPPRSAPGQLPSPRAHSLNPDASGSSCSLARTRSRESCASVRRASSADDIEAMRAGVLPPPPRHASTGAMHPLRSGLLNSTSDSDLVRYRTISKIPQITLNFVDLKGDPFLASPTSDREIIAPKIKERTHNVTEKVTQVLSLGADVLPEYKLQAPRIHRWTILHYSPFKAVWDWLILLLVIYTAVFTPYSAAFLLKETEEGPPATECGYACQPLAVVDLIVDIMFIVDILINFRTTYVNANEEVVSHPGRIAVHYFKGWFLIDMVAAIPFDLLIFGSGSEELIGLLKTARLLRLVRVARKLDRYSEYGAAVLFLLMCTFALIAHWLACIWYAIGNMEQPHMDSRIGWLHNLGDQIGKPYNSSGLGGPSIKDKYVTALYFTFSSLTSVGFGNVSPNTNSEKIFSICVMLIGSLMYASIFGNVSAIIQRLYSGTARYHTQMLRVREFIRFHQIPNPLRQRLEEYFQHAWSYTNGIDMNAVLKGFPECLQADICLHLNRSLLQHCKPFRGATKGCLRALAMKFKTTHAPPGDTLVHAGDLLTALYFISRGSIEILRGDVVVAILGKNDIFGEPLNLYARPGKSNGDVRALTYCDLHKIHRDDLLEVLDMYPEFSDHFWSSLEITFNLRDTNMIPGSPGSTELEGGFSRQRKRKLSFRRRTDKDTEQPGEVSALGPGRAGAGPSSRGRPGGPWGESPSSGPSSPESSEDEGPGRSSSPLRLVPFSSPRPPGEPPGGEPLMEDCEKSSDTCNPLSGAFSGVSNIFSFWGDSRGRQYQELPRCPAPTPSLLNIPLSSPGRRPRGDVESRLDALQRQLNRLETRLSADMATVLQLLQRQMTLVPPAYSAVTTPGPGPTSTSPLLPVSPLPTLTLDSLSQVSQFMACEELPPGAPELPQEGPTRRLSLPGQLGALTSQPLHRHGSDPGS
As for `CCOC(=O)CSc1cc(CS(=O)(=O)c2ccccc2)nc(-c2ccccc2)n1`, the “hERG current change (%, negative = inhibition) at 1uM” value was found to be 8.36%.
With `COCCNC(=S)NC1CC2CCC(C1)N2Cc1ccccc1` (stereo not shown), the “hERG current change (%, negative = inhibition) at 1uM” value amounted to 7.05%.
In the case of `O=[N+]([O-])c1ccc(/C=N/Nc2ccccn2)cc1` it was 12.1%.
In the case of `CCOc1cccc2c1OC1(C)CC2NC(=O)N1c1ccc(OC)cc1` (stereo not shown) it was 4.54%; in that of `O=C(Cn1cccc1)Nc1ccc(OC(F)(F)F)cc1`, 0.665%.
In the case of `COc1cc(Cl)c(NS(=O)(=O)c2c(C(=O)N3CCCC3)c(C)n(C)c2C)c(OC)c1`, the “hERG current change (%, negative = inhibition) at 1uM” value was determined as 10.3%.
In the case of `O=C(Nc1cccc(F)c1)c1coc(=O)c(Br)c1` it was 3.45%; in that of `O=C(Nc1ccccc1N1CCOCC1)c1cccc2c(Br)cccc12`, 18.9%; in that of `COc1ccc2[nH]c(C(=O)NCCN3CCOCC3)cc2c1`, 14.5%.
As for `C=CCOc1ccc(CNCCc2ccc(S(N)(=O)=O)cc2)cc1.Cl`, the figure is -34%; as for `O=C(COc1ccc2ccccc2c1)NNC(=O)c1ccccc1`, 16.8%.
In the case of `O=C(CCl)N1CCN(S(=O)(=O)Cc2ccccc2)CC1` it was 6.47%; in that of `Cc1ccc(O)c(NC(=S)NC(=O)C(C)C)c1`, 6.12%.
`CCC(c1nnnn1Cc1ccco1)N1CCN(c2cc(Cl)ccc2C)CC1.Cl` (stereo not shown): the “hERG current change (%, negative = inhibition) at 1uM” value turned out to be 10.7%.
Take `Cc1cc(C(=O)NCCc2ccccc2)c2cc(F)ccc2n1`: the “hERG current change (%, negative = inhibition) at 1uM” value is given as 9.22%.
`O=C(COC(=O)CNC(=O)c1ccco1)Nc1ncc(Cl)cc1Cl`: the “hERG current change (%, negative = inhibition) at 1uM” value was found to be 13.9%.
As for `COc1ccc(NC(=O)NC(=O)c2ccccc2)cc1`, the figure is 12.5%; as for `Cc1cc(NS(=O)(=O)c2ccc(NC(=O)c3cccc(OC(F)F)c3)cc2)nc(C)n1`, 10.7%.
In the case of `COc1ccc(NC(=O)CN(C)C(=O)c2cccc(S(=O)(=O)N3CCN(Cc4ccccc4)CC3)c2)cc1` it was 1.95%.
As for `COc1ccc(S(=O)(=O)c2nnn(-c3ccccc3Cl)c2N)cc1`, the figure is -1.14%; as for `Cc1cccc(N2CCN(C(=O)Cc3ccccc3[N+](=O)[O-])CC2)c1C`, 9.77%.
As for `N#C/C(=C\c1ccccc1C(F)(F)F)C(=O)Nc1ccccc1`, the “hERG current change (%, negative = inhibition) at 1uM” value is given as 0.849%.
As for `Cc1ccccc1NC(=O)NNC(=O)OC(C)(C)C`, the figure is -0.145%.
As for `CC(NC(=O)CCc1nnc(C2CCCCC2)o1)c1ccc(F)cc1` (stereo not shown), the figure is 8.55%; as for `CCOC(=O)/C=C/COc1ccccc1[N+](=O)[O-]`, 6.93%.

The values above are taken from publication PMC4336329 (PLoS ONE, 2015).
